# Test results from the supplement of paper PMC9446081.
# About 220 (0.56%) of roughly 39,000 compounds showed activity. The list shows a part of the results.
# System: Escherichia coli K-12 BW25113
# Experiment: relative growth (OD600 normalised to plate interquartile mean) (fraction); higher = less growth inhibition, active = 0.2 or less
# Settings: 50 µM; LB; incubation time: overnight (16-24 h)
# 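Note: static incubation at 37 °C against the wild-type strain, values averaged over two biological replicates.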
row,SMILES,relative growth
1,COc1ccc(S(=O)(=O)Nc2ccc3c(c2)C(=O)N([C@H](C)CO)C[C@H](C)[C@@H](CN(C)Cc2ccc(-c4ccccc4)cc2)O3)cc1,inactive: 0.995
2,Cc1cc(-c2ccc(N=Nc3ccc4c(S(=O)(=O)[O-])cc(S(=O)(=O)[O-])c(N)c4c3O)c(C)c2)ccc1N=Nc1ccc2c(S(=O)(=O)[O-])cc(S(=O)(=O)[O-])c(N)c2c1O.[Na+].[Na+].[Na+].[Na+],inactive: 2.26
3,COCC#Cc1ccc2c(c1)O[C@H](CN(C)Cc1ccc3c(c1)OCO3)[C@H](C)CN([C@@H](C)CO)S2(=O)=O,inactive: 1.03
4,COc1ccc(NC(=O)Nc2ccc3c(c2)C(=O)N([C@@H](C)CO)C[C@@H](C)[C@@H](CN(C)S(=O)(=O)c2ccc(OC)cc2)OCCCC[C@H](C)O3)cc1,inactive: 1.01
5,Cc1ccc(S(=O)(=O)Nc2ccc3c(c2)C(=O)N([C@@H](C)CO)C[C@@H](C)[C@@H](CN(C)C(=O)Nc2ccccc2)OCCCC[C@@H](C)O3)cc1,inactive: 1.01
6,NC(=O)CN1CCCCCC1=O,inactive: 1.02
7,CC(N)C12CC3CC(CC(C3)C1)C2.Cl (stereo not drawn),inactive: 1.04
8,C[C@@H]1CN([C@H](C)CO)C(=O)c2cc(NC(=O)Nc3ccc(F)cc3)ccc2O[C@@H](C)CCCCO[C@@H]1CN(C)S(=O)(=O)c1ccc(F)cc1,inactive: 1.02
9,C[C@@H]1CCCCO[C@H](CN(C)C(=O)NC2CCCCC2)[C@@H](C)CN([C@@H](C)CO)C(=O)c2cc(NC(=O)C3CCCCC3)ccc2O1,inactive: 1.07
10,COc1ccc(S(=O)(=O)Nc2ccc3c(c2)C(=O)N([C@H](C)CO)C[C@H](C)[C@H](CN(C)C(=O)Nc2cccc4ccccc24)OCCCC[C@@H](C)O3)cc1,inactive: 0.986
11,CC(=O)N[C@@H]1[C@@H](OCCOc2ccc(Cl)cc2C)O[C@H](CO)[C@H](O)[C@@H]1O,inactive: 1.03
12,N#Cc1ccc(-c2ccccc2)nc1,inactive: 0.994
13,Cc1ccc(S(=O)(=O)Nc2ccc3c(c2)C(=O)N([C@H](C)CO)C[C@@H](C)[C@@H](CN(C)S(C)(=O)=O)OCCCC[C@@H](C)O3)cc1,inactive: 1.03
14,C[C@H](CO)N1C[C@H](C)[C@@H](CN(C)S(=O)(=O)c2ccc(F)cc2)Oc2ccc(NS(C)(=O)=O)cc2CC1=O,inactive: 0.973
15,C[C@H](CO)N1C[C@H](C)[C@@H](CN(C)Cc2ccc(C(F)(F)F)cc2)Oc2ccc(NC(=O)Cc3cn(C)c4ccccc34)cc2CC1=O,inactive: 1.01
16,CN1CCN(C(=O)C[C@H]2CC[C@H]3[C@@H](COC[C@H](O)CN3C(=O)C3CCCC3)O2)CC1,inactive: 1.01
17,Cc1noc(C)c1NC(=O)Nc1cccc2c1O[C@H](CN(C)Cc1ccc(Oc3ccccc3)cc1)[C@H](C)CN([C@H](C)CO)C2=O,inactive: 0.982
18,COc1ccc(NC(=O)Nc2ccc3c(c2)C(=O)N([C@H](C)CO)C[C@H](C)[C@@H](CN(C)Cc2ccc(Cl)c(Cl)c2)OCCCC[C@@H](C)O3)cc1,inactive: 1.03
19,C[C@H](CO)N1C[C@H](C)[C@@H](CN(C)Cc2ccc(-c3ccccc3)cc2)Oc2ccc(NC(=O)Cc3ccccc3)cc2C1=O,inactive: 0.967
20,O=C(C[C@H]1CC[C@H](NC(=O)c2cccnc2)[C@@H](CO)O1)NCCN1CCCCC1,inactive: 0.999

row,SMILES,relative growth
1,COc1ccc(-c2cnc3c(c2)C(=O)N([C@H](C)CO)C[C@@H](C)[C@H](CN(C)C(=O)C2CCOCC2)O3)cc1,inactive: 0.991
2,Cc1ccc(S(=O)(=O)N(C)C[C@@H]2Oc3c(NC(=O)c4cnccn4)cccc3C(=O)N([C@H](C)CO)C[C@@H]2C)cc1,inactive: 1.01
3,C[C@@H]1CN([C@@H](C)CO)C(=O)c2cc(NS(=O)(=O)c3ccccc3)ccc2O[C@H]1CN(C)C(=O)Nc1cccc2ccccc12,inactive: 0.979
4,C[C@H]1CN([C@@H](C)CO)S(=O)(=O)c2ccc(C#Cc3ccccc3)cc2O[C@@H]1CN(C)S(=O)(=O)c1cn(C)cn1,inactive: 1.03
5,C[C@@H]1CN([C@H](C)CO)C(=O)c2cc(NC(=O)Nc3ccccc3)ccc2O[C@@H](C)CCCCO[C@@H]1CN(C)CC1CCCCC1,inactive: 1.02
6,O=C(CCCc1ccccc1)OCC(COC(=O)CCCc1ccccc1)OC(=O)CCCc1ccccc1,inactive: 0.967
7,COCCOC(=O)N1C(=O)[C@@]2(c3cc(C#CC4(O)CCCCCC4)ccc31)[C@H](C(=O)NC[C@H](O)c1ccccc1)[C@H]1C(=O)O[C@H](c3ccccc3)[C@H](c3ccccc3)N1[C@@H]2c1ccc(OCCO)cc1,inactive: 1.01
8,Nc1cc(N2CCCCC2)nc(N)[n+]1[O-],inactive: 1.07
9,O=C(O)Cn1nnc(-c2ccccc2)n1,inactive: 1.05
10,O=C1CCC(C(=O)N2CSCC2C(=O)O)N1 (stereo not drawn),inactive: 1.01
11,C[C@H](CO)N1C[C@H](C)[C@@H](CN(C)Cc2ccc(Cl)c(Cl)c2)Oc2c(NS(=O)(=O)c3ccc(F)cc3)cccc2C1=O,inactive: 0.991
12,C[C@H]1CCCCO[C@H](CN(C)C(=O)Nc2ccc(F)cc2)[C@@H](C)CN([C@@H](C)CO)C(=O)c2cc(NS(=O)(=O)c3ccc(F)cc3)ccc2O1,inactive: 0.997
13,C[C@@H]1CCCCO[C@@H](CN(C)S(=O)(=O)c2ccc(Cl)cc2)[C@H](C)CN([C@@H](C)CO)C(=O)c2cc(NC(=O)Nc3ccc(F)cc3)ccc2O1,inactive: 1.02
14,C[C@H](CO)N1C[C@H](C)[C@@H](CN(C)S(C)(=O)=O)Oc2cc(C#Cc3ccc(F)cc3)ccc2S1(=O)=O,inactive: 1.02
15,C[C@H](O)C#Cc1cnc2c(c1)C(=O)N([C@@H](C)CO)C[C@@H](C)[C@@H](CN(C)C(=O)CN1CCOCC1)O2,inactive: 0.985
16,CO[C@H]1O[C@@H](COC(C)=O)[C@@H](OC(C)=O)C(C#N)(C#N)[C@@H]1OC(C)=O,inactive: 0.994
17,C[C@@H]1CCCCO[C@@H](CN(C)Cc2ccc(Cl)c(Cl)c2)[C@@H](C)CN([C@@H](C)CO)C(=O)c2cc(NS(=O)(=O)c3ccccc3)ccc2O1,inactive: 0.997
18,C[C@H](CO)N1C[C@H](C)[C@H](CN(C)C(=O)CN(C)C)Oc2cc(-c3ccc(C#N)cc3)ccc2S1(=O)=O,inactive: 0.972
19,Cc1noc(C)c1NC(=O)Nc1ccc2c(c1)C(=O)N([C@@H](C)CO)C[C@H](C)[C@H](CN(C)C(=O)Nc1ccc3c(c1)OCO3)OCCCC[C@H](C)O2,inactive: 0.998
20,C[C@H](CO)N1C[C@H](C)[C@@H](CN(C)S(=O)(=O)c2cn(C)cn2)Oc2c(NS(=O)(=O)c3ccccc3)cccc2C1=O,inactive: 1

row,SMILES,relative growth
1,CO[C@H]1CN(C)C(=O)c2cc(NC(=O)NC(C)C)ccc2OC[C@H](C)N(Cc2ccc(-c3ccccn3)cc2)C[C@@H]1C,inactive: 1.01
2,Cc1noc(C)c1NC(=O)Nc1ccc2c(c1)C(=O)N([C@H](C)CO)C[C@@H](C)[C@H](CN(C)C(=O)Nc1cccc3ccccc13)OCCCC[C@@H](C)O2,inactive: 1.02
3,Cc1ccc(S(=O)(=O)Nc2ccc3c(c2)C(=O)N([C@@H](C)CO)C[C@@H](C)[C@H](CN(C)Cc2ccc(C(=O)O)cc2)OCCCC[C@H](C)O3)cc1,inactive: 1.01
4,CC1(C)OC2CC3C4CCC5=CC(=O)CCC5(C)C4(F)C(O)CC3(C)C2(C(=O)CCl)O1 (stereo not drawn),inactive: 0.978
5,O=C(CCCCCNC(=O)OCc1ccc(CO[C@@H]2C[C@H](c3csc4ccccc34)C=C(C(=O)N3CCN(Cc4ccccc4)CC3)O2)cc1)NO,inactive: 1
6,COc1cccc(-c2ccc3c(c2)O[C@@H](CN(C)Cc2cncnc2)[C@H](C)CN([C@H](C)CO)S3(=O)=O)c1,inactive: 1.02
7,C[C@@H]1CN([C@@H](C)CO)C(=O)Cc2cc(NC(=O)CCCCCC(=O)Nc3ccccc3N)ccc2O[C@@H]1CN(C)C(=O)Nc1ccc(F)cc1,inactive: 0.986
8,Cc1ccc(S(=O)(=O)Nc2ccc3c(c2)CC(=O)N([C@@H](C)CO)C[C@H](C)[C@H](CN(C)S(=O)(=O)c2cccs2)O3)cc1,inactive: 1.01
9,O=c1[nH]c2ccccc2c2ccccc12,inactive: 1
10,C[C@H](CO)N1C[C@H](C)[C@@H](CN(C)C(=O)NC2CCCCC2)OCCCC[C@H](C)Oc2ccc(NC(=O)c3ccncc3)cc2C1=O,inactive: 0.967
11,C[C@@H]1CN([C@@H](C)CO)C(=O)c2c(c3ccccc3n2C)-c2ccccc2CO[C@@H]1CN(C)C(=O)c1cc(Cl)cc(Cl)c1,inactive: 1.02
12,C[C@H](CO)N1C[C@H](C)[C@@H](CN(C)Cc2ccc(C(F)(F)F)cc2)Oc2ccc(NC(=O)Nc3ccc4c(c3)OCO4)cc2CC1=O,inactive: 1.07
13,COc1ccc(CN(C)C[C@H]2Oc3ccc(NS(C)(=O)=O)cc3C(=O)N([C@@H](C)CO)C[C@@H]2C)cc1,inactive: 1.06
14,NC(=O)c1cccnc1N1CCN(C(=O)[C@@H]2CC(=O)N(C3CC3)C2)CC1,inactive: 0.997
15,C[C@@H]1CCCCO[C@@H](CN(C)S(=O)(=O)c2ccc(Cl)cc2)[C@H](C)CN([C@H](C)CO)C(=O)c2cc(NS(=O)(=O)c3cccs3)ccc2O1,inactive: 1.01
16,C[C@H](CO)N1C[C@H](C)[C@H](CN(C)Cc2ccc(C(F)(F)F)cc2)Oc2ccc(NC(=O)Nc3ccc(C(F)(F)F)cc3)cc2C1=O,inactive: 0.96
17,COc1nn(C)cc1C(=O)N1CCN(C)CC1,inactive: 0.998
18,Cc1ccc(S(=O)(=O)Nc2ccc3c(c2)C(=O)N([C@H](C)CO)C[C@H](C)[C@H](CN(C)C(=O)Nc2c(C)noc2C)OCCCC[C@@H](C)O3)cc1,inactive: 0.972
